Source: the RNAGym collection of RNA variant scans (doi:10.7554/elife.90254)
Read counts are not given, so values of variants with three or more changes are uncertain.

B1: LINE1-full (parent)
chain: UACGUAGGUGGUUUUCCCCUGAUAGUGCUAAGGGGGCCUGGAAGUUUGGACUGGGCAGAGCUCAACACAGCGUGGCAAAGUGGCUGUGGCUAGACUGCCUCUCUGGAUUCCUCGUCACUCAGCAGGGCAUCUCUGAGAGAAAUGCC

Variants of: B1
Assay: self-cleavage, relative activity (ratio to wild type); higher = more cleavage; in vitro, sequencing; the parent is a self-cleaving ribozyme

Variant | self-cleavage
G35C U73C G74A G127A | 1.24
G35A A42U U52C A79U A141G | 0.3
U39A A69G U100C A138G A141G | 1.15
U39A A42G G75A | 0.94
G34C G54A A57G A67U C133A | 0.12
G33A U47C A59U A124G | 0.59
U39A U52G C95U | 0.39
G34U A94U G122U | 0.19
G36U U91C U100A U108C A121U A142G | 0.05
G33A G88A A107G A117G | 0.1
G33A U62C A142G | 0.05
G35A U85C U104C | 0
G34A A42G G55A A124U | 0.45
U39A A59G U73C A121G A142G | 0
C37U U39C C51U A140G | 1.58
G33U A42G A107G | 0.5
G34A C51U U96C | 0.15
G36U A117U A124G | 0.8
G36C U52A U130A | 0.29
G35A A50G A64U A94G | 0.02
G33U A59G U62A U102C A138U | 0
G35A C71U A77U | 0.67
U39A U109C C118U | 0.85
G36C U81C A124C | 0.86

Variant | self-cleavage
U39A A94G U100C | 0.32
G33A U112C G135U | 1.02
C38U A42G A43G | 1.1
U39A A64G A65G | 0
G34U G106U U115C | 1.69
G34C A65G U85A | 0
G36C G40A U132A A140U | 1.08
G35C U73A A136U | 1.01
G33A U87A U134C | 0.05
G36U C37U U100C A136U | 1.14
U39C A64U A77U | 0.28
C37U U73C U85G A107U | 0.04
U39C A43U G137A | 1.6
C37A U45C A59G | 0.08
U39A A50G U73C A77U U104A A140G | 0.58
U39C A42G A65G | 0
C38U C99A G114A U132C | 0.82
C37A U62A A78G A140G | 0.07
G35A U47A A78U | 1.47
G36A A77G A121G | 2.56
U39A U102C U130C U132C | 0.71
G36A U73C A77G U85C | 0.17
G34U C51A U73C | 1.09
G34U U81G G89A | 0.04

Variant | self-cleavage
G36A U39C U130C | 1.74
G33C G86A A136U | 0.08
G34A U91C A129C | 1.23
U39C A59U G97A U119C | 0.21
C37G U46C G72A | 1.36
C37U A78G U143C | 1.62
G36C A43G A59U | 0.81
U39A U45A A141G | 1.77
G35A C56U G106A U115A | 0.17
G34A G54U A67G U134C | 0.28
G35A U73C A124U U130C | 2.1
G34C U130C A141G | 1.97
U39A G54U U112C | 0.94
G36A A43G U73C | 0
U39A A43G U45A A78G | 1.02
G33A U134A A141G | 0.99
G36U A42G U45A | 0.97
C38U G48A C66U | 0.04
G34U C99U A107G | 0.85
G33C A79G A141U | 1.06
U39C A77G C123U | 1.16
U39A A42G U62C U102C A136G A142U U143A | 0
G33A U47C U134C | 1.09
G34A A42G U52C | 0.86

Variant | self-cleavage
G35C G83A G106A A124G | 0.31
G35C U62C U119A | 0.06
G33A G41A A64U | 0.24
G35U A64G U108C | 0.03
G34A A77G A136U A141G | 1.45
U39C A65U U115C A138G | 0.25
C37U A69G A78G U100C A140G | 0.37
U39A G44C U52A G106A A136C | 1.43
G34U U62C A79G U115C | 0
G36C U85C A121G | 0.45
C37U A77G A78G U115A A117U | 2.25
U39A A136U A138G | 1.02
G35A U45C C76U | 0.78
U39A A79G A121U A140G | 1.05
U39A A77U U81C | 1.35
G35A U85C A117G | 0.03
G33U U130C A140G | 1.78
C37U U47C A77G U96C A117G | 0
C38U A79C U130A | 0.93
U39A U47C A65G U130C | 0.6
G33C U39C U73C A140G | 0
G34A U46C U47G | 0.84
C38A A78C U115C | 1.77
G33A G49U A79G U143C | 0.91

Variant | self-cleavage
G33A A69U A79G U132C A138G | 0
G36U U91C U108C A141G | 0.66
C37U U62G C98A A136U | 0.06
G34A A77G G88A A124U | 0.11
G36A A57U A79G | 0.1
G34U U52C U108C U112C | 1.08
G33U A69C U91C A124U A129G | 0
U39A G55C A67G | 0.06
U39A A79G U102A | 1.68
G33U A42U A138G | 0.91
G34A G41U A64U U73C U87C | 0.05
U39A U108C A136U A138G | 2.02
G34A U130C U132C | 1.3
G35U G105U A142G | 0.87
C38U A77G U87C U96C A140G | 0.27
G34A U91A A92G | 0.09
U39A C116U A117G | 1.58
C37G A50C U81A A141G | 1.52
G34A A69U A142G | 0.03
G34A U85C U91C C98U | 0
U39C A59G U91A | 0.13
U39A U46C A107G A140G A141G A142G | 1.53
C38U G114A G135A | 0.16
C37U U47C A141G | 2.26

Variant | self-cleavage
C37G G40A U115C G125U | 1.2
G35C A65U A77U | 0.18
G36C A50G A77U U104C A142G | 0.38
G34A G36A U45C C116U | 0.54
C38A U39C A124U | 2.09
U39C A59G A64G | 0.29
C38U U45C C103A | 1.41
G35A U39G A65G A69C | 0.08
C37U U73C G93A G114C | 0.02
U39A U62C U73A A138G | 0.05
G33A U46A A65G | 0.07
U39C A42G U85C G97A | 0.07
C37A A94G A121G | 0.21
U39A A65G A138G | 0
C37U A69U U115C A141U | 0.02
U39A A64G U73A | 0.26
C38U U39G U62C A124G | 0.11
C37U U62A C98U A121G | 0.04
C37U A59U A142G | 0.63
U39A A140G A142G | 0.33
G35U U46C A117U A129G A140G | 1.74
G33U A57U U62C | 0.06
C37G U73A A140G | 0.45
U39A U45C U47A A94U U119C | 0.38

Variant | self-cleavage
C38U A42U U91C C113U | 0.3
G34U U100C A136G | 2.15
U39C A64U G105U | 0.25
G34A A78G G106A U112C A136G | 1.2
G36A U112C A141G | 1.43
G36C A77G U112A A129U | 2.6
G35A C76U U100C A124G | 1.95
C38U U46G A65G | 0.2
C37A U96C G125U C131U | 0.08
U39A C76U U143C | 1.86
U39A A57U U96A A140G | 0.51
C38U U81C C90G | 0.03
G36A G135A A141G | 1.25
G36A U39A U85C U143A | 0.13
U39C A59G U85A U100C | 0
U39A U46C A136U | 1.45
C37U U73C U81A U104C A121C A124U | 2.42
U39C A59G U62C U102C | 0
C38A U52A U115G U143C | 1.1
G36A U62A A79G A136G | 0.03
C38U G54A U73C U132C | 0.61
U39A U100A G122U A141G U143C | 0
C37U U102C U112C | 0.96
